According to publication PMC4336329 (PLoS ONE, 2015):
The whole screen tested about 310,000 compounds, of which about 2,200 (0.71%) showed an effect of 50% or more. The effect is printed as a negative number. The list shows a part of the results.

target: human ether-à-go-go-related gene (hERG) potassium channel (human, UniProt Q12809); test: primary screen, population patch clamp on CHO cells stably expressing hERG
Sequence (Q12809 whole entry, looked up): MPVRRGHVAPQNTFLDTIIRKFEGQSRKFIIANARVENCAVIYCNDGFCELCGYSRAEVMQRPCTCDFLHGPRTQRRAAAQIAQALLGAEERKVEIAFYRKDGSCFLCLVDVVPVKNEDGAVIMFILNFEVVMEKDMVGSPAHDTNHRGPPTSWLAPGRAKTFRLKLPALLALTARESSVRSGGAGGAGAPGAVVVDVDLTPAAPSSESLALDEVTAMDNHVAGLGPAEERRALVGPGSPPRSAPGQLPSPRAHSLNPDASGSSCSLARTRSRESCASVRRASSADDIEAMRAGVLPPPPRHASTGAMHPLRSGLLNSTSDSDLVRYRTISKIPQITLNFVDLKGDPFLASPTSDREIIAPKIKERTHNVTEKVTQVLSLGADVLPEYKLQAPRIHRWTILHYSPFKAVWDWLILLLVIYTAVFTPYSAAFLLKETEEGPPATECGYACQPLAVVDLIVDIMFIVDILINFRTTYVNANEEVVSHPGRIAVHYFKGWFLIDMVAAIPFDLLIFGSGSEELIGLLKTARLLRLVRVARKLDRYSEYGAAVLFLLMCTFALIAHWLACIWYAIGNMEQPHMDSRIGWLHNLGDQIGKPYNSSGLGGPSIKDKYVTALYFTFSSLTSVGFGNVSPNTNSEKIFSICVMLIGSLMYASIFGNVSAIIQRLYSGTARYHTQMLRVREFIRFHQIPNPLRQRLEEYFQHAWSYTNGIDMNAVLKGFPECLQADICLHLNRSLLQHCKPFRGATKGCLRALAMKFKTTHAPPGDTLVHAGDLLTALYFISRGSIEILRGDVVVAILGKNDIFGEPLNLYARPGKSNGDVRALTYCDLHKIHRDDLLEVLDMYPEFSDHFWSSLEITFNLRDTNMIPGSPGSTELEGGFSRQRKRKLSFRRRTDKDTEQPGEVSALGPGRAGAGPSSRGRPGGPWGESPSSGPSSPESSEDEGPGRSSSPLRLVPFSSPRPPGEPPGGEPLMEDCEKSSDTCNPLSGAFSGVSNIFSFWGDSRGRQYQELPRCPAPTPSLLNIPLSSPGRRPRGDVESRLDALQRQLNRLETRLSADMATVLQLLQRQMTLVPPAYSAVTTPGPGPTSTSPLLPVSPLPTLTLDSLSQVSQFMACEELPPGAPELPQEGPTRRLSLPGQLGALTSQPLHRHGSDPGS

SMILES | hERG current change (%, negative = inhibition) at 1uM [%]
CCOc1ccc(NS(=O)(=O)c2ccc(NC(=O)c3ccccc3C(=O)O)cc2)cc1 | 9.36
O=C(c1cccc(-c2nnc(-c3ccccc3)o2)c1)N1CCCCCC1 | -6.98
Cl.O=C(NCCN1CCCC1)C1COc2ccccc2O1 (stereo not shown) | 20.6
CC(C)OC(=O)C1C2C=CC3(CN(C(C)c4ccc(Br)cc4)C(=O)C13)O2 (stereo not shown) | 7.23
CCCCCCCOc1ccc(OC(=O)c2ccncc2)cc1 | 16.3
O=c1c2ccccc2nc(N2CCN(c3ccccc3)CC2)n1Cc1ccccc1 | 5.54
Cc1ccc(OCCN2CCOCC2)cc1C | 12.7
CCOC(=O)C1CCCN(C(=O)c2cc(Cl)ccc2NC(=O)C2=C(C)OCCS2)C1 (stereo not shown) | 14.2
Cc1cc(OCC(=O)Nc2cnn(CCCC(=O)O)c2)ccc1[N+](=O)[O-] | 17.2
COc1ccc(-n2c(C)cc(/C=N/Nc3nnc(C)n3N)c2C)cc1.Cl | 18.8
COc1ccccc1CNC(=O)c1cccc(S(=O)(=O)N(C)c2ccccc2)c1 | -1.21
CCC(Sc1nccn1C)C(=O)Nc1ccc(Cl)cn1 (stereo not shown) | 5.95
O=C(CN1CC(c2ccccc2)CC1=O)NCc1ccc(F)cc1 (stereo not shown) | 2.44
CC(C)(C)C(CCl)C(=O)NN=C(c1ccccc1)c1ccccc1 (stereo not shown) | 10.4
CC(=O)Nc1nc(SCC(=O)NCC2CCCO2)[nH]c(=O)c1NC(=O)c1cccs1 (stereo not shown) | 17.5
CCOC(=O)c1sc(NNC(=O)c2ccc(C)cc2)nc1C | 10.5
CC1CCCCN1S(=O)(=O)c1ccc2c(c1)C(C)(C)C(=O)N2C (stereo not shown) | 10.9
COc1ccc(C(=O)C2CCCN(Cc3ccc(C)s3)C2)cc1OC (stereo not shown) | -32.5
COc1cc(OC)cc(C(=O)NC(C(=O)OCn2nnc3ccccc3c2=O)C(C)C)c1 (stereo not shown) | -0.167
O=C(Nc1cccc(Cl)c1)Nc1cccc(C(=O)O)c1 | 16
CN1CN=C(N[N+](=O)[O-])N(Cc2ccco2)C1 | 9.01
COC(=O)N/N=C/c1c[n+]([O-])c2ccccc2[n+]1[O-] | 14.4
Fc1ccc2nc(Nc3ccccc3)sc2c1 | 0.228
C=CCn1c(-c2ccc(OC)cc2)nc2ccccc21 | -0.807
COc1ccc(C(CNC(=O)CCNC(=O)c2ccccc2OC)N2CCCC2)cc1 (stereo not shown) | -2.95
